Drawing on PMC10516749, this text covers binding for four molecules.

By UniProt entry, the sequences of proteins in these tests, tags left out.
UniProt P63208: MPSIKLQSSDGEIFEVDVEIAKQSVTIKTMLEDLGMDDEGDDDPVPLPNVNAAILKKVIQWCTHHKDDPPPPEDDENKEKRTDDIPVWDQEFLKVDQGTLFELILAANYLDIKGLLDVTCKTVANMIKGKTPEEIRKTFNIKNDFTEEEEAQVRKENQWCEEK

No constants are given. Whether binding was seen depends on the method and setting. In cells and extracts the contact can be indirect. Some binding calls cover weakened binding; strength is not graded here. For some assays here: Where a sequence is shown, tags or fusion partners need not be part of it.

The target in experiment [1] is T1, FBXO28-Flag-Myc (pCMV6-FBXO28-Myc-Flag) (UniProt Q9NVF7).
T1 sequence: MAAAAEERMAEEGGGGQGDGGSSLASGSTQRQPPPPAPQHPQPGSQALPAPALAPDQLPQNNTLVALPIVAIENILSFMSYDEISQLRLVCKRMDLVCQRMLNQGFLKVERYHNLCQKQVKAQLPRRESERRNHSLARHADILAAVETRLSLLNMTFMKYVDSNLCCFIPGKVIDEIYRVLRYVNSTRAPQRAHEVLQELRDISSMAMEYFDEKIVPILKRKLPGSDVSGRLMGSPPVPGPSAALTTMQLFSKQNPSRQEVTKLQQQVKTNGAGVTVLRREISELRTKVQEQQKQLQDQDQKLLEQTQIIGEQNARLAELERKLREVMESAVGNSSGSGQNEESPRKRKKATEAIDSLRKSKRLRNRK
Nature of the experiment: co-IP; HEK293T cells expressing FBXO28 or FBXO28ΔF; CULLIN1 and SKP1 detected in the immunoprecipitate by IB (Supplementary Fig. S5B, S5E).

The target in experiment [2] is T1, FBXO28-Flag-Myc (pCMV6-FBXO28-Myc-Flag). Briefly: co-IP; Huh7 and HCCLM3 cells co-expressing FBXO28-Flag and SNAI2-Myc, IP by anti-Flag antibody, MG132 20 uM 6 h before harvest, Triton X-100 buffer, IB.
Experiment [3] shares this target. Nature of the experiment: co-IP; HEK293T cells transfected with FBXO28 and SNAI2 plasmids (wild type or mutants) for 48 h, MG132 20 uM 6 h before harvest, Triton X-100 buffer, IP and IB.
Experiment [4] shares this target. Briefly: condition: only cells treated with PKA inhibitors (H89 or KT5720); co-IP; HEK293T cells transfected with FBXO28 and SNAI2 plasmids for 24 h, then treated with the PKA inhibitor H89 (0.2 uM, 24 h; DMSO as control) or KT5720 (Supplementary Fig. S6B), IP and IB.
Experiment [5] deals with T2, FBXO28 (endogenous, Huh7 cells) (human (endogenous in Huh7)) (UniProt Q9NVF7).
T2 sequence: T1 sequence
Nature of the experiment: co-IP; untransfected Huh7 cells, IP with FBXO28 antibody or normal rabbit IgG on Protein A/G magnetic beads, IB; both proteins endogenous.

On to SKP1 (from UniProt P63208 1-163), for which the binding entry in experiment [1] is recorded as “binds”.

B1: SNAI2-Myc (pcDNA3.1-SNAI2-Myc) (protein, UniProt O43623 1-268)
chain: MPRSFLVKKHFNASKKPNYSELDTHTVIISPYLYESYSMPVIPQPEILSSGAYSPITVWTTAAPFHAQLPNGLSPLSGYSSSLGRVSPPPPSDTSSKDHSGSESPISDEEERLQSKLSDPHAIEAEKFQCNLCNKTYSTFSGLAKHKQLHCDAQSRKSFSCKYCDKEYVSLGALKMHIRTHTLPCVCKICGKAFSRPWLLQGHIRTHTGEKPFSCPHCNRAFADRSNLRAHLQTHSDVKKYQCKNCSKTFSRMSLLHKHEESGCCVAH
For B1, the binding entry in experiment [2] is “binds”.

B2: SNAI2-HA (pcDNA4.0-SNAI2-HA) (protein, UniProt O43623 1-268)
chain: B1 chain
Regarding B2, the binding result in experiment [3] is “binds”; in experiment [4], “no binding”.

B3: SNAI2 (endogenous, Huh7 cells) (protein, UniProt O43623 1-268)
chain: B1 chain
Turning to B3, the binding entry in experiment [5] is listed as “binds”.
